Measured values published in patent US11384076B2, “Synthesis, pharmacology and use of new and selective FMS-like tyrosine kinase 3 (FLT3) FLT3 inhibitors” (UNIVERSITÄT REGENSBURG, priority 2017, dated 2022).
Like-named read-outs stand apart in the source and are kept apart here.

Columns and labels:
Ba/F3 WT = assay: Ba/F3 cell number IC50, trypan blue staining; assay type: cell-based, murine; conditions: for IC50: Mus musculus
Description: (§1) IC50 values were calculated by means of the Prism Graphpad software.

MV4-11 cells [1] = system: MV4-11 cells
[2] = system: FLT3-ITD and its KD mutants vs KIT; conditions: Smith, Lasater et al. 2014; cited from earlier work
[3] = system: Ba/F3 WT vs. mutant cells; assay: FLT3 signaling in Ba/F3 WT and mutant cells, Western blot; conditions: Ba/F3 WT and mutants, 5 nM, 2 h
Ba/F3 D835Y = assay: Cell cycle / subG1 fraction in Ba/F3 mutants, flow cytometry; assay type: cell-based, murine; conditions: 5 nM, 48 h
Description: (§2) Cells were stained with PI; cell cycle was analyzed by flow cytometry.
(§3) After incubation, cells were harvested on ice and fixed in 80% ethanol at −20° C. for at least 1 h. Next, the cells were incubated with RNase for 30 min at room temperature, thereafter stained with propidium iodide (PI), and measured immediately with a flow cytometer. PI intercalates into DNA. In the different phases of the cell cycle, cells incorporate various amounts of PI. This allows the quantification of the cell cycle phases. The subG1 population represents the fraction of apoptotic/necrotic cells, which contains only fragmented DNA (DNA content <2N).
(§4) As described in the introduction there are several mutations next to ITDs that lead to reduce efficiency or to resistance against FLT3i treatment. The murine pro B cell line Ba/F3 and different mutant forms were analyzed. The proliferation of Ba/F3 wild type (WT) cells is dependent of interleukin-3 (IL-3). These cells were cultivated with 10% WEHI.
(§5) The WT and the different mutants were stained with PI and cell cycle distribution was analyzed by flow cytometry.

Ba/F3 D835Y N676K = assay: as above; assay type: cell-based, murine; conditions: 5 nM, 48 h
Description: as §2, §3, §4, §5

MV4-11 cells [4] = conditions: xenograft mouse model; Zimmerman, Turner et al. 2013; cited from earlier work
MV4-11 cells [5] = assay: Cell cycle distribution / subG1 fraction, PI staining, flow cytometry; assay type: cell-based, human; conditions: 2 nM, 5 nM or 10 nM, 48 h
Description: FIG. 3: The human FLT3-ITD positive cell line MV4-11 was stimulated with different FLT3i (2 nM, 5 nM or 10 nM) for 48 h (n=2). Cells were stained with PI and measured by flow cytometry. Data were analyzed with FACS Diva software (Version 7.0, BD Biosciences GmbH, Heidelberg, Germany).
as §3
The synthesized set of FLT3 inhibitors (FLT3i) was tested in the human FLT3-ITD expressing AML cell line MV4-11 (Buchwald, Pietschmann et al. 2010).

Ba/F3 FLT3 ITD N676K = assay: Ba/F3 cell number IC50, trypan blue staining; assay type: cell-based, murine
Description: as §1

Ba/F3 FLT3 ITD D835Y = assay: Ba/F3 cell number IC50, trypan blue staining; assay type: cell-based, murine
Description: as §1

Ba/F3 FLT3 D835YN676K = assay: Ba/F3 cell number IC50, trypan blue staining; assay type: cell-based, murine
Description: as §1

Ba/F3 FLT3 ITD = assay: Ba/F3 cell number IC50, trypan blue staining; assay type: cell-based, murine
Description: as §1

Ba/F3 FLT3 D835Y = assay: Ba/F3 cell number IC50, trypan blue staining; assay type: cell-based, murine
Description: as §1

[6] = Solubility, enhancement by transformation to a carbamate prodrug; conditions: water
[7] = Tolerability in xenotransplanted mice; assay type: in vivo
Description: (§6) To test the tolerability and in vivo efficacy of Marbotinib, xenotransplantation assays using NOD/SCID/yc (NSG) mice were performed. In a first experiment, 10×10^6 MV4-11 cells were transplanted subcutaneously into recipient mice (day 0). […] As a control, a cohort of transplanted mice were treated with the FLT3-inhibitor PKC412 (100 mg/kg). To investigate target efficacy, mice were sacrificed 24 hours after beginning of treatment. Upon preparation of single cell suspension derived from subcutaneous tumor nodes (90-100 cm^3), protein lysates were extracted immunoblot analyses performed.
(§7) Altogether, 18 mice were treated with different concentrations of Marbotinib either by oral administration (N=14) or intraperitoneal injections (N=4). Mice were sacrificed either 4 hours (N=9) or 24 hours (N=9) after start of treatment.

[8] = system: FLT3-phosphorylation and STAT5-phosphorylation in MV4-11 tumors; assay: Subcutaneous MV4-11 xenotransplantation, immunoblot of tumor lysates (target efficacy); assay type: in vivo, NOD/SCID/yc (NSG) mice; conditions: 0.1, 10, 100 mg/kg, oral or intraperitoneal, 24 hours after beginning of treatment
Description: FIG. 11. Immunoblot analyses of protein lysates derived from MV4;11 xenotransplanation models. Tumor nodes were explanted 24 hours upon start of treatment with indicated concentrations of PKC412 or Marbotinib and protein lysates were prepared. Immunoblot analysis was performed using anti-pSTAT5A/B (Tyr694/699), anti-(total)-t-STAT5 and anti-phospho-FLT3 (Tyr591) antibodies. Anti-GAPDH staining was used as loading control. For each condition 2 tumor samples were blotted.
as §6

Ba/F3 ITD N676K = assay: Cell cycle / subG1 fraction in Ba/F3 mutants, flow cytometry; assay type: cell-based, murine; conditions: 5 nM, 48 h
Description: as §2, §3, §4, §5

Ba/F3 ITD D835Y = assay: as above; assay type: cell-based, murine; conditions: 5 nM, 48 h
Description: as §2, §3, §4, §5

FLT3-ITD in MV4-11 cells [9] = assay: FLT3-ITD signaling, Western blot of cell lysates; conditions: MV4-11, 5 nM
MV4-11 cells [10] = assay: Proliferation assay against human AML cells; assay type: cell-based
Description: FIGS. 2A and 2B: Proliferation assay of selected compounds of the novel set of TKi against human AML cells (MV4-11 cells).
The pharmacological properties of the novel compounds against FLT3-ITD-positive human MV4-11 cells (FIG. 2A+B) were evaluated. Most of the investigated compounds show promising effects in this assay.

MV4;11 cells = assay: Long-term efficacy, survival after intravenous MV4;11 transplantation; assay type: in vivo, mice; conditions: 50 mg/kg bodyweight qd, oral gavage, 5 days from day 22, vs vehicle
Description: FIG. 12: Description of experimental set-up and treatment strategy.
FIG. 13: Kaplan-Meier survival curves. Recipient mice were transplanted with 1×106 MV4;11 cells by intravenous tail vein injection. Treatment with PKC412, (N=5; 50 mg/kg bodyweight, qd) Marbotinib (N=5; 50 mg/kg bodyweight, qd) or vehicle control (N=4) was started at day 22 post transplantation by oral gavage. Mice were treated for 5 days followed by an observation period and moribund mice were sacrificed. Differences in survival were analyzed by log-rank analyses.
as §7

MV4-11 cells [11] = assay: Vitality assay, DAPI staining, flow cytometry; assay type: cell-based, human; conditions: 1, 5, 10, 100 nM, 48 h; especially at 1 nM, 5 nM and 10 nM
Description: FIG. 14: Results of vitality assay in which MV4-11 cells were exposed to FLT3-inhibitors Marbotinib, Marbotinib Carbamate and ACC220, at different concentrations, and cell viability staining was performed.
MV4-11 cells were treated with FLT3-inhibitors at different concentrations (1 nM, 5 nM, 10 nM, 100 nM) for 48 h. Viability staining was performed using life cell staining with DAPI. Samples were analysed using flow cytometry via FACS Canto; N=3.

FLT3-ITD in MV4-11 cells [12] = assay: Dephosphorylation of FLT3-ITD and downstream targets over time, Western blot; assay type: cell-based, human; conditions: 5 nM; 2 h, 6 h, 16 h, 24 h
From the text: Whole cell lysates were used for SDS-Page and Western blot. The blots show dephosporylation of FLT3-ITD and some of its downstream targets, cell cycle regulators, and DNA damage regulators after treatment with FLT3-inhibitors over time. GAPDH was used as loading control. Control is indicated as CTRL. Marbotinib is indicated as FLT3i3 and Marbotinib-Carbamat is indicated as FLT3i540.

[13] = Mus musculus, Ba/F3 FLT3-ITD, 72 hours, N=3
[14] = Mus musculus, BaF3, 72 hours, N=3

## CC(C)(C)c1nnc(NC(=O)Nc2ccc3[nH]c(C(=O)c4cc5cc(O)ccc5[nH]4)cc3c2)s1 [46b, 1-(5-tert-Butyl-1,3,4-thiadiazol-2-yl)-3-(2-(5-hydroxy-1H-indole-2-carbonyl)-1H-indol-5-yl)urea]
other
  melting point: 235 °C

## CC(C)(C)c1cc(NC(=O)Nc2ccc3[nH]c(C(=O)c4cc5cc(O)ccc5[nH]4)cc3c2)ns1 [46c, 1-(5-tert-Butylisothiazol-3-yl)-3-(2-(5-hydroxy-1H-indol-2-carbonyl)-1H-indol-5-yl) urea]
other
  melting point: 295.6 °C

## Cc1cc(NC(=O)Nc2ccc3[nH]c(C(=O)c4cc5cc(O)ccc5[nH]4)cc3c2)no1 [46d, 1-(2-(5-Hydroxy-1H-indol-2-carbonyl)-1H-indol-5-yl)-3-(5-methylisoxazol-3-yl) urea]
other
  melting point: 280.6 to 281.5 °C

## CC(C)(C)c1cc(NC(=O)Nc2ccc(-c3cn4c(n3)sc3cc(OCCN5CCOCC5)ccc34)cc2)no1.Cl.Cl [AC220, N-(5-tert-Butyl-isoxazol-3-yl)-N′-{4-[7-(2-morpholin-4-yl-ethoxy)imidazo[2,1-b][1,3]benzothiazol-2-yl]phenyl}urea Dihydrochloride, reference compound]
Ba/F3 WT; BaF3, 72 h
  IC50: 3.56 ± 0.326 nM
MV4-11 cells [1]; mice, gavage
  highest dose that can be dosed: ≤ 50 mg/kg

## CC1(COc2ccc3c(c2)ncn3-c2ccc3cccc(N4CCC(N)CC4)c3n2)COC1 [Crenolanib, reference compound]
[2]
  potency on FLT3-ITD and its KD mutants relative to KIT: about 100 fold
[3]
  effect on phosphorylation status of STAT5 and FLT3: did not result in strong effects
Ba/F3 D835Y
  subG1 fraction / cell cycle distribution: changes in cell cycle distribution
Ba/F3 D835Y N676K
  subG1 fraction / cell cycle distribution: changes in cell cycle distribution
MV4-11 cells [4]
  outgrowth of MV4-11 cells: delayed the outgrowth
MV4-11 cells [5]
  potency against MV4-11 cells (comparison): less potent than AC220

## CC(C)(C)c1cc(NC(=O)Nc2ccc3oc(C(=O)c4cc5cc(O)ccc5[nH]4)cc3c2)no1 [Marbotinib, 1-(5-(tert-butyl)isoxazol-3-yl)-3-(2-(5-hydroxy-1H-indole-2-carbonyl)benzofuran-5-yl)urea]
Ba/F3 FLT3 ITD N676K; Marbotinib vs. 7 (AC220)
  Ratio of activity: 1.2
Ba/F3 FLT3 ITD N676K; [13]
  IC50: 16.5 ± 0.973 nM
Ba/F3 FLT3 ITD D835Y; Marbotinib vs. 7 (AC220)
  Ratio of activity: 7.8
Ba/F3 FLT3 ITD D835Y; [13]
  IC50: 17.9 ± 0.914 nM
Ba/F3 FLT3 D835YN676K; Marbotinib vs. 7 (AC220)
  Ratio of activity: 2.3
Ba/F3 FLT3 D835YN676K; [14]
  IC50: 17.5 ± 0.9 nM
Ba/F3 FLT3 ITD; Marbotinib vs. 7 (AC220)
  Ratio of activity: 3.7
Ba/F3 FLT3 ITD; [13]
  IC50: 2.06 ± 0.346 nM
Ba/F3 FLT3 D835Y; Marbotinib vs. 7 (AC220)
  Ratio of activity: 5.8
Ba/F3 FLT3 D835Y; [14]
  IC50: 1.14 ± 0.853 nM
Ba/F3 WT; Marbotinib vs. 7 (AC220), Ba/F3 WT
  Ratio of activity: 1.2
Ba/F3 WT; BaF3, Ba/F3 WT, 72 hours, N=3, read-out: IC50
  IC50: 2.95 ± 0.852 nM
[6]
  solubility: < 1000 µg/mL
[7]; doses up to 100 mg/kg
  tolerability: good tolerability
[7]; oral or intraperitoneal, 4 or 24 hours after start of treatment
  toxic effects in analyzed organs (liver, lung, heart, kidneys): no toxic effects were observed
[8]
  FLT3-phosphorylation in tumor nodes: inhibition
  STAT5-phosphorylation in tumor nodes: inhibition
Ba/F3 D835Y
  subG1 fraction / cell cycle distribution: strong increase
Ba/F3 ITD N676K
  subG1 fraction: strong increase
Ba/F3 ITD D835Y
  subG1 fraction: slight increase
Ba/F3 D835Y N676K
  subG1 fraction / cell cycle distribution: strong increase
FLT3-ITD in MV4-11 cells [9]
  p-STAT5: clear reduction
FLT3-ITD in MV4-11 cells [9]; 1 h
  p-FLT3-ITD: clearly reduces
MV4-11 cells [10]; FLT3-ITD-positive MV4-11 cells
  effect in proliferation assay: most potent
MV4-11 cells [10]; Homo sapiens, MV4-11, given once at 1 nM
  inhibition at 0.001 µM: ~80%
MV4-11 cells [5]
  subG1 fraction: increase the subG1 fraction most strongly
MV4;11 cells
  overall survival: significant prolonged overall survival

## CC(C)(C)c1cc(NC(=O)Nc2ccc3oc(C(=O)c4cc5cc(OC(=O)N6CCC(N7CCCCC7)CC6)ccc5[nH]4)cc3c2)no1.Cl [Marbotinib-Carbamat]
[6]
  solubility: 3000 to 4000 µg/mL
MV4-11 cells [1]; once per day by gavage, day 14 to day 18 after injection
  percent survival of mice: clearly increased
MV4-11 cells [11]
  cell viability, efficacy compared with AC220: more effective than compound AC220
FLT3-ITD in MV4-11 cells [12]
  block of FLT3-ITD and its associated signaling cascades: effectively block

## CO[C@@H]1[C@H](N(C)C(=O)c2ccccc2)C[C@H]2O[C@]1(C)n1c3ccccc3c3c4c(c5c6ccccc6n2c5c31)C(=O)NC4 [PKC412, reference compound]
MV4;11 cells
  overall survival: No difference
